Test results reported in the RNAGym collection of RNA variant scans (doi:10.7554/elife.90254).
Read counts are not given, so values of variants with three or more changes are uncertain.

B1: OR4K15 (parent)
chain: GUUAACGGUCAUAGGCCAUGGAAACUAGGAGCACCAUUUCGCUGCCAGUGAAGAAAUGAACAAAGAAAAUCUGGGCCAGGCAGGCAUCAAAAGAAAUAGUCUUGCGCUCAACCAGAAAGUCUGUAAUCAUUUUAAGGGUA

Variants of: B1
Assay: self-cleavage, relative activity (ratio to wild type); higher = more cleavage; in vitro, sequencing; the parent is a self-cleaving ribozyme

| Variant | self-cleavage |
| --- | --- |
| A33G A47G A60G A95G | 0.86 |
| A30U U39C A51G A68G | 0.93 |
| A33U U49C U139C | 0.99 |
| A30G U72C U108C | 0.03 |
| A33U A55G U57A A68G | 1.07 |
| A33G A111G A125G | 0.03 |
| A30U A63G U100C | 2.22 |
| A30G G44A U72C A90G A129C | 0.11 |
| A33G C34U A59G | 2.12 |
| A33C U49C A126G | 0.92 |
| A30G U37C A52G A67G | 0.83 |
| A33C A62U A110U | 2 |
| A33U A64G U87C A91G A94U A96G U103C | 0.67 |
| A30U A63U G79A A110G A129G | 0.01 |
| G31A A47G A60G | 0.43 |
| A33U G73A A110C | 0.04 |
| G31A G41A U132C | 1.63 |
| A30G A90U A126G | 0.7 |
| A30G G44A A60G A111U | 0.1 |
| A30G A82U A91G | 0.23 |
| A30G A114U U120G | 0.01 |

| Variant | self-cleavage |
| --- | --- |
| A33U A60U U70C U100C U108A | 0.02 |
| A30G U49C A64G U87C U97C A98G U108A A111U A135G | 0 |
| A30U A56G U72A A78C | 0.33 |
| A30G U102A A116G | 0.23 |
| A33G U49C A117G | 0.94 |
| A30G A68C A126G | 1.03 |
| A30G A89G U100C A118G | 0.75 |
| A30U U43A G115A | 0.17 |
| A33G A89G A118G | 0.1 |
| A33G U57G A140G | 0.65 |
| A30U U39A A96G U103C | 1.33 |
| A33G U72C A89G | 0.19 |
| G31U A63G A68G | 1.59 |
| A33G A125G U127C | 0.03 |
| A33G A52G A68U | 0.75 |
| A33G U37C A54G | 1.12 |
| A33G A47G A60G A95G U108A | 0.01 |
| A30G A92G U102C A116G | 1.06 |
| A33G A47U G53A A66U U87C | 0.34 |
| A30G U38C U49C A126G | 0.66 |
| A33C U49C A95G | 1.65 |

| Variant | self-cleavage |
| --- | --- |
| A33G U43A U108C U130C U131C | 0 |
| A33U A47G U132A | 1.02 |
| A33G U43C A98G A117G | 0.27 |
| A33G U37A G41U A60G A82G U102A | 0.46 |
| A30G A59G U132A | 1.53 |
| A30G A55G A116G U131C | 0.56 |
| A33G A36G U43A A78U | 0.29 |
| A30U G31A A54U | 1.1 |
| A30G C32U A98U | 1.14 |
| A30G U43A U100C G104U U133C | 0.01 |
| A33G A54G A91G | 0.22 |
| A30G U43C A59U U120C | 1.12 |
| A30G A90G A116U | 0.5 |
| A30G A56G A60G G104U | 0.02 |
| A30G A59G U122C A129G | 1.49 |
| A30G A64G U100A U127A G137U | 0.91 |
| A30G A55G A69G | 1.19 |
| A33G U72C U108C | 0.02 |
| A33G A59U A68G U72A U131C | 0.02 |
| A33G A82G A94G | 0.4 |
| A30G A66G A117G U124C | 1.12 |

| Variant | self-cleavage |
| --- | --- |
| A30G A86G A89G U108A A126G U132C G136U | 0.01 |
| A30G U49C U72A U87A | 0.2 |
| A30G A64G A86G | 1.82 |
| A30G A62G A67G A68G | 0.36 |
| A30G A98G A118G | 0.26 |
| A33U G44A U108A A116G | 0.02 |
| A30G U72C A91G U100C U103C U132C | 0.17 |
| A30U A69G U70C U103G U122G A126G | 0.02 |
| C32U A33U U120C | 1.24 |
| G31A A56G A78U A82U | 0.08 |
| A30G U38A A59G U124C | 1.38 |
| A33G A92G A117G U120C | 0.14 |
| A33G A59G A96G | 1.21 |
| A33U U39A A94C | 2.5 |
| A33G A60G U108G | 0.03 |
| A33G A51G C105A | 0.05 |
| A33G A36G U38A | 1.36 |
| A33G A78C G137U | 0.25 |
| A33G A89G A90G U127A | 0.55 |
| A33G A89G A92U C105G A129G | 0.01 |
